Test results as given in publication PMC7804203 (2021).

B1: Flag-tagged full-length SLP76 [not stated] / HA-tagged full-length RAGE [not stated] (parent complex)
chain 1: MALRNVPFRSEVLGWDPDSLADYFKKLNYKDCEKAVKKYHIDGARFLNLTENDIQKFPKLRVPILSKLSQEINKNEERRSIFTRKPQVPRFPEETESHEEDNGGWSSFEEDDYESPNDDQDGEDDGDYESPNEEEEAPVEDDADYEPPPSNDEEALQNSILPAKPFPNSNSMYIDRPPSGKTPQQPPVPPQRPMAALPPPPAGRNHSPLPPPQTNHEEPSRSRNHKTAKLPAPSIDRSTKPPLDRSLAPFDREPFTLGKKPPFSDKPSIPAGRSLGEHLPKIQKPPLPPTTERHERSSPLPGKKPPVPKHGWGPDRRENDEDDVHQRPLPQPALLPMSSNTFPSRSTKPSPMNPLPSSHMPGAFSESNSSFPQSASLPPYFSQGPSNRPPIRAEGRNFPLPLPNKPRPPSPAEEENSLNEEWYVSYITRPEAEAALRKINQDGTFLVRDSSKKTTTNPYVLMVLYKDKVYNIQIRYQKESQVYLLGTGLRGKEDFLSVSDIIDYFRKMPLLLIDGKNRGSRYQCTLTHAAGYP
chain 2: not shown

Variants of: B1
Test: co-immunoprecipitation (IP anti-HA, IB anti-Flag), band quantification; HEK293 cells, AGEs +, n = 3; parent: 1; read off a plot

Compared with chain 1 Y113A, chain 1 Y128A is higher in ratio to parent: roughly 0.7 for the first, roughly 0.76 for the second.

chain 1 Y145A was tested, and the ratio to parent was roughly 0.77.
